Assay results published in the supplement of paper PMC10338343.
± gives the standard deviation. In all, about 5,500 sequences were measured (“pre-steady-state target cleavage rate”: median about 0.1, highest 2% from about 0.64 on). This is a selection; strong and weak results do not stand in their true shares.

The sequences below were run on MIWI (PIWIL1) piRISC loaded with piRNA #2 (30 nt) (assay: pre-steady-state target cleavage rate (min^-1); MIWI and MILI are mouse PIWI proteins and EfPiwi is from a freshwater sponge; tags in brackets are library labels; higher = faster piRNA-guided slicing of the target). Details: guide: piRNA #2 5'p-UUAGGUAACCCAGUAGAUCCAGAGGAAUUC; auxiliary factor: 500 nM mouse GTSF1.
Method in brief: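 Cleave-'n-Seq: 1 nM active affinity-purified piRISC with one synthetic guide and 0.1 nM transcribed, DNA-blocked target RNA library were mixed, with or without 500 nM GTSF1 partner protein, in HEPES–potassium acetate buffer at 33 °C for 0–8 or 0–960 min. Uncleaved targets were sequenced and normalised to depth and to weakly complementary targets, three trials were pooled, and k3 was capped at 0.0001 min^-1. The pre-steady-state cleavage rate was fitted […].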

Row | Sequence | pre-steady-state target cleavage rate
1 | CUUAACCUCUGGAUCUACUCGCUUACCUAA | 0.00558 ± 0.0032
2 | CUUAACCUCUGCAUCUACUGCGUUACCUAA | 0.458 ± 0.041
3 | CUAUUCCUCUGGAACUACUGCGUUACCUAA | 0.281 ± 0.038
4 | CUUAUCCUCUGGAACUACUGGGUUUCCUAA | 0.144 ± 0.046
5 | CUUAAGCUCUGGAUCUACUGGGUUACCAUA | 0.157 ± 0.025
6 | CUUAAGGUCUCGAACUACUGGGUUACCUAA | 0.0183 ± 0.014
7 | CUUAAGGAGACCUAGUACUGGCGUUACCUAA | 0.00873 ± 0.0013
8 | CUUAUCCUCUGCAUCUACUGGGUUUCCUAA | 0.0491 ± 0.015
9 | CUUAAGCUCUGGAUCAACUCGGUUACCUAA | 0.0285 ± 0.011
10 | GAAUUCCUCUCGAUCUACUGGGUUACCUUA | 0.629 ± 0.069
11 | CUAUUCCUCUAGGAUCUACUGGGUUACCUAA | 0.278 ± 0.041
12 | CUUUUCCUCUCGAUCUACUGGGUUUCCUAA | 0.509 ± 0.058
13 | CUUAAGGUCUCGAUCUACUGGGUUACCUAA | 0.216 ± 0.024
14 | CUUAAGGAGAGGAUCUACUGGCGUUACCUAA | 0.00502 ± 0.0044
15 | CUUAAGGAGAAGAUCUACUGGGUUACCUAA | 0.00849 ± 0.0034
16 | CAAUUCCUCUGGAUCUACUGGGUUAGGUAA | 0.114 ± 0.042
17 | CUAUUCGUCUGCAUCUACUGGGUUACCUAA | 0.523 ± 0.036
18 | GAAUUCGUCUGGAACUACUGGGUUACCUAA | 0.456 ± 0.046
19 | CUUAACCUCUGGAUCAUCUGGGUUACCUAA | 0.155 ± 0.013
20 | CUUAUCGUCUGGAUCUACUGGGUUACCUAA | 0.344 ± 0.053
21 | CUUAAGGACUGGAUCUACUGGGUUUACCUAA | 0.123 ± 0.059
22 | CUUAAGGAGACCUAGAUCUGGGUUACGAAA | < 0.0001
23 | CUUAAGGUCUGGUAUCUACUGGGUUACCUAA | 0.157 ± 0.02
24 | CUUAUCCUCUGGAUCUACUGGCGUUACCUAA | 0.00393 ± 0.003
25 | CUAUUCCUCACGAUCUACUGGGUUACCUAA | 0.659 ± 0.042

Row | Sequence | pre-steady-state target cleavage rate
26 | CUUUUCCUCUCGAUCUACUGGGUUAGCUAA | 0.362 ± 0.038
27 | GAUAUCCUCUGGAUCUACUGGGUUACCUAA | 0.121 ± 0.037
28 | CUUUUCCUCUGGAUCUACUGGGUAUGCUAA | 0.0185 ± 0.0056
29 | CUUAACCUCUGUGAUCUACUGGGUUACCUAA | 0.25 ± 0.024
30 | CAAAUCCUCUGGAUCUUCUGGGUUACCUAA | 0.44 ± 0.056
31 | CUUAAGGUCUGGAUCUACUGGGUUACACUAA | 0.345 ± 0.043
32 | CUUAACCUCUCGAUCUACAGGGUUACCUAA | 0.293 ± 0.018
33 | CUUAAGGAGUGGAUCUACUGGGUUACAUAA | 0.354 ± 0.052
34 | CUUUUCCUCUGGAUCUACUGGGAUAGCUAA | 0.14 ± 0.034
35 | CUUAAGGAGAGGAUCUACUGGGUUACCGUAA | 0.00436 ± 0.0037
36 | CUUAAGGUCUGCAUCUACUGGGUAACCUAA | 0.0258 ± 0.023
37 | CUUAAGGUCUGAGAUCUACUGGGUUACCUAA | 0.227 ± 0.029
38 | CUAUUCCUCUGCAUCUACUGGGUUUCCUAA | 0.332 ± 0.11
39 | CUUUUCCUCUGGAUCUACUGGGUUAGCUUA | 0.199 ± 0.045
40 | CAAUUCCUCUGGAUCCACUGGGUUACCUAA | 0.362 ± 0.051
41 | CUUAAGCUCUGGAUCUACUGGGUUACGUUA | 0.198 ± 0.025
42 | CUUUUCCUCUGGAUCUACUGGCUUACCUUA | 0.0532 ± 0.011
43 | GAAUUCCUCAGGAUCUACUGGGUUAGCUAA | 0.301 ± 0.032
44 | CUUAAGCUCUGGAUCAUACUGGGUUACCUAA | 0.00474 ± 0.0033
45 | CUUAACCUGACGAUCUACUGGGUUACCUAA | 0.0514 ± 0.015
46 | GAAUUCCUGUGGAUCUACUGGGUUACCUAA | 0.367 ± 0.043
47 | CAAUUCCUGUGGAUCUACUGGGUUACGUAA | 0.428 ± 0.075
48 | CUUAUCCUCUGGAUCUACUCCGUUACCUAA | 0.021 ± 0.009
49 | CAAAUCCUCUGGAUCUAGUGGGUUACCUAA | 0.195 ± 0.025
50 | CAAUUCCUGUGGUUCUACUGGGUUACCUAA | 0.46 ± 0.034

Row | Sequence | pre-steady-state target cleavage rate
51 | CUUAAGCUCUGCGAUCUACUGGGUUACCUAA | 0.151 ± 0.025
52 | CUUAUGCUCAGGAUCUACUGGGUUACCUAA | 0.368 ± 0.038
53 | CUUAUCCUCUGGAUCUACUGGGUGACCUAA | 0.296 ± 0.032
54 | GAAUUCCACUGCAUCUACUGGGUUACCUAA | 0.574 ± 0.037
55 | CUUAAGGAGUGGAUCUACUGGGUUACCUUAA | 0.0734 ± 0.018
56 | CAAUUCCUCUGGAACUACUGGCUUACCUAA | 0.161 ± 0.023
57 | CUAUUCCACUGGAUCUUCUGGGUUACCUAA | 0.489 ± 0.07
58 | CAAUUCCUCUGGAUCAACUGGGUUAGCUAA | 0.177 ± 0.049
59 | GAAUUCCUCUGGAUCUACAGCGUUACCUAA | 0.152 ± 0.02
60 | CUUAACCUCUGGAUCUACUGCGUUUCCUAA | 0.0654 ± 0.013
61 | CUUAAGCUCUGGAUCUACAGGCUUACCUAA | 0.0352 ± 0.0085
62 | GAAUUCCUCUGGUAUCUACUGGGUUACCUAA | 0.484 ± 0.091
63 | CUUAUCCUCUGGAUCUUCUCGGUUACCUAA | 0.0624 ± 0.011
64 | CUAAUCCUCUGGAUCUACUGGGAUACCUAA | 0.274 ± 0.029
65 | CAAUUCCACUGGAUCUACUGGCUUACCUAA | 0.0613 ± 0.019
66 | GAAUUCCUCUGGAUCUACUGGGUUACCUCAA | 0.35 ± 0.061
67 | CUUAAGGAGACCUUCUUCUGCGUUACCUAA | 0.00449 ± 0.0027
68 | CUUUUCCUCUGGAUCAACUGGGAUACCUAA | 0.176 ± 0.023
69 | CUUAAGCUCUGGAUCUACUGGAUUACCUAA | 0.196 ± 0.025
70 | GAAUACCUGUGGAUCUACUGGGUUACCUAA | 0.301 ± 0.058
71 | CUUAUCCUCUGGAUCUACUGGGAUACCAAA | 0.274 ± 0.075
72 | CUUAUCCUCUGGAUCUACUGGGUUACCAA | 0.488 ± 0.086
73 | CAAUUCCUCUGGAUCUACUGGGUUCCUAA | 0.00946 ± 0.0064
